These results are taken from ChEMBL document CHEMBL4888484, “Replenishing the malaria drug discovery pipeline: Screening and hit evaluation of the MMV Hit Generation Library 1 (HGL1) against asexual blood stage Plasmodium falciparum ,using a nano luciferase reporter read-out” (2022).

The % Inhibition is the drop in the measured response relative to a control, in per cent.

Among all 150,000 compounds or so, about 540 (0.36%) showed an effect of 50% or more. Some of the results follow.

This experiment has as its system Plasmodium falciparum. As to the kind of experiment: Primary screen in NF54 nanoGlo assay, in single point, at 2uM, 72h; a lower Z score goes with more inhibition. The experiment is classed as functional, Erythrocyte. The note with it: timepoint 72 hour.
On to `Cc1cc(F)ccc1NC(=O)CN1CCC2(CCC(=O)N2C)CC1`, for which the “% Inhibition” value was -3% and the Z score was determined as 0.46.
Take `O=C(CO)N1CCC[C@@]2(CCC(=O)N(Cc3ccccc3)C2)C1`: the “% Inhibition” value was -2% and the Z score worked out at 0.33.
Taken in the same sequence, the figures for `CC(O)(CN1CCCC(N2CCCS2(=O)=O)C1)C(F)(F)F` (stereo not drawn) were 3% and -0.49.
Consider `CN(CCCNC(=O)[C@H]1CCCN(c2nnc3ccccn23)C1)c1ccccc1`, for which the “% Inhibition” value is on record as -18% and the Z score is reported as 2.
In the case of `CC(C)N(CC(=O)N1CCn2cccc2[C@H]1c1cccc(Oc2ccccc2)c1)C(=O)c1cccc(F)c1`, the “% Inhibition” value was determined as 10% and the Z score is reported as -1.02.
Consider `CN(CC(=O)Nc1ccc(F)cc1)C(=O)c1cccc(C(=O)N(C)CC(=O)Nc2ccc(F)cc2)n1`, for which the “% Inhibition” value stood at 14% and the Z score is on record as -1.82.
In the case of `CC(=O)NC[C@H]1CCCN(c2nc3nonc3nc2N(C)Cc2ccccc2)C1`, the “% Inhibition” value was determined as 8% and the Z score is reported as -1.61.
As for `COc1ccccc1C(=O)Nc1cc(-c2ccccn2)no1`, the “% Inhibition” value was -7% and the Z score was determined as 1.3.
Taken in the same sequence, the figures for `COCCN(Cc1ccc(OC)c(OC)c1)CC1CCN(Cc2ccccc2OC)CC1` were -6% and 1.1.
On the same counts, the results for `CCOC(=O)N1CCC(NC(=O)c2cn(C[C@H](O)c3ccccc3F)nn2)CC1` are -13% and 2.49.
In the case of `O=C([C@@H]1C[C@H](F)CN1S(=O)(=O)c1ccc(F)c(F)c1)N1CCc2ccccc2C1`, the “% Inhibition” value is listed as -2% and the Z score came out at 0.27.
As for `COCc1ccc(C(=O)N2C[C@H](OC)C[C@H]2c2nncn2C)cc1`, the “% Inhibition” value is recorded as -8% and the Z score was determined as 1.1.
For the compound `CC(CCn1cccn1)NCC1CC=CCC1` (stereo not drawn), the “% Inhibition” value is recorded as -8% and the Z score amounted to 1.17.
Taken in the same sequence, the figures for `COc1nn(C)cc1C(=O)N1CCN(c2ccc(-c3cccs3)nn2)CC1` were 14% and -2.17.
For `Cc1ccc(S(=O)(=O)[C@H]2CS(=O)(=O)C[C@@H]2NC(C)C)cc1`, the “% Inhibition” value came out at 3% and the Z score is reported as -0.39.
Taken in the same sequence, the figures for `Cn1cc(-c2ccc(-n3cnnc3)nc2)cn1` were -5% and 0.76.
On to `COc1cc(NS(=O)(=O)C2CC2)ccc1Cl`, for which the “% Inhibition” value stood at 11% and the Z score is given as -2.04.
In the case of `CN1CC(=O)N[C@@H]2CN(C(=O)c3ccc4c(c3)ncn4CCO)CC[C@@H]2OCc2cccc(c2)Oc2cccc(c2)CCC1=O`, the “% Inhibition” value came out at 15% and the Z score is reported as -2.02.
Taken in the same sequence, the figures for `O=C(Nc1ccc(OCC2CCOC2)cc1)N1CCC2CCCCC21` (stereo not drawn) were -8% and 0.83.
In the case of `O=C(CN1CCOC[C@@]12CCOC2)Nc1ccc2c(c1)CCC2`, the “% Inhibition” value is -10% and the Z score stood at 1.2.
On the same counts, the results for `O=C(NCc1ccc(-c2cccc(Cl)c2)o1)[C@H]1CC[C@H](O)CC1` are -19% and 1.86.
On the same counts, the results for `CC1CCC2(CC1)CCN(C(=O)[C@@H]1CCCO1)C2` (stereo partly drawn) are -1% and 0.23.
Regarding `Cn1ncc(NC(=O)C(C)(C)c2ccc(Cl)cc2F)cc1=O`, the “% Inhibition” value is recorded as -6% and the Z score was determined as 0.94.
In the case of `C[C@H]1CC(=O)N(C)c2ccc(NC(=O)NCc3nc(N(C)C)no3)cc21`, the “% Inhibition” value is given as -2% and the Z score was 0.25.
For `Cc1nc(C(=O)N(C)C)ccc1C(=O)NCCNC1CCCCCC1`, the “% Inhibition” value is given as -12% and the Z score was determined as 1.88.
For the compound `CC(C)Cc1nc(NC(=O)CNC(=O)c2cnccn2)n[nH]1`, the “% Inhibition” value was -12% and the Z score worked out at 1.5.
`CC(C)(C)[C@H]1CCCN(c2ccnc(C(N)=O)c2)C1`: the “% Inhibition” value is -8% and the Z score was 0.94.
In the case of `CO[C@@H](CNC(=O)c1ccc(C(=O)O)cc1F)C(C)(C)C`, the “% Inhibition” value is on record as -11% and the Z score is given as 2.1.
Regarding `Cc1nc(CC(=O)Nc2cnn3c2NCCC3)cs1`, the “% Inhibition” value worked out at 1% and the Z score is -0.14.
Taken in the same sequence, the figures for `N#Cc1cccc(N2CC[C@@]3(CCCN(C4CCCCC4)C3=O)C2)n1` were 1% and -0.26.
Taken in the same sequence, the figures for `COc1cc(CNC2CCCCC2)ccc1OCc1cccc(C)c1` were 29% and -3.31.
On the same counts, the results for `CC1(C)C[C@H](NC(=O)Nc2nnc(-c3ccsc3)s2)C(C)(C)O1` are -9% and 1.69.
As for `COc1nc(N(C)Cc2cnn(C)c2C)ncc1F`, the “% Inhibition” value is recorded as 28% and the Z score is given as -3.86.
For the compound `O=C(Nc1ccc(S(=O)(=O)N2CCCC2)cc1)C1=Cc2ccccc2OC1`, the “% Inhibition” value was -10% and the Z score was found to be 1.14.
`COc1ccccc1OCC(=O)N1CCC(=C2CC2)CC1`: the “% Inhibition” value is -23% and the Z score was found to be 2.72.
As for `Cc1noc(C)c1C(C)C(=O)NC(C)C1(N2CCOCC2)CCCC1` (stereo not drawn), the “% Inhibition” value came to 31% and the Z score is reported as -3.54.
Take `Cn1cc([C@]2(CNC(=O)C3(O)CCCC3)CCCO2)cn1`: the “% Inhibition” value is -15% and the Z score was determined as 2.06.
For `Cn1cc(S(=O)(=O)N(Cc2ccccc2)c2ccncc2)cc1C(N)=O`, the “% Inhibition” value is on record as -6% and the Z score was 0.73.
For the compound `COc1ccc(C)cc1S(=O)(=O)N[C@@H]1Cc2ccccc2[C@H]1N`, the “% Inhibition” value is -2% and the Z score is listed as 0.49.
Take `Cc1ncc(CN(C)C(=O)Nc2cccc(-c3nnco3)c2)s1`: the “% Inhibition” value is -11% and the Z score was 1.67.
Consider `CCc1[nH]nc(-c2cccc(F)c2)c1NC(=O)CC1CCCC1`, for which the “% Inhibition” value is reported as -21% and the Z score stood at 2.08.
In the case of `CCOc1ncccc1-c1cccc2cccnc12`, the “% Inhibition” value is listed as -3% and the Z score came to 0.36.
Consider `CCc1ccc([C@@H]2CC(=O)Nc3cc(N4CCCC4)c(C(N)=O)cc32)o1`, for which the “% Inhibition” value is reported as -18% and the Z score is 1.74.
In the case of `C[C@@H](Cc1ccccc1)C(=O)N1CC(=O)NCC1(C)C`, the “% Inhibition” value was found to be 7% and the Z score is listed as -1.01.
For the compound `Cc1nc2c(C(=O)NC(Cc3ccncc3)[C@H]3C[C@H](O)C3)cccc2[nH]1` (stereo partly drawn), the “% Inhibition” value is given as -4% and the Z score turned out to be 0.78.
Regarding `O=C(O)c1cnc(C=Cc2csc(-c3ccc(F)cc3)n2)[nH]c1=O`, the “% Inhibition” value is reported as -8% and the Z score turned out to be 1.23.
Regarding `Cc1ccc(CC(=O)N2CCC(CCOc3cccnc3)CC2)cc1`, the “% Inhibition” value is -8% and the Z score was 1.45.
On the same counts, the results for `Cc1ccccc1C(=O)N[C@@H]1CCCC[C@H]1NC(=O)C1CCN(S(=O)(=O)c2ccc(C(C)(C)C)cc2)CC1` are -16% and 1.53.
Take `Cc1ccc(C)c(NC(=O)Cn2nc3cc(C)nc(N4CCCC4)n3c2=O)c1`: the “% Inhibition” value is recorded as -23% and the Z score came out at 2.42.
In the case of `CCOc1ccccc1N1Cc2cccc(OCC)c2OCC1=O`, the “% Inhibition” value is listed as -14% and the Z score was determined as 1.54.
Regarding `CCc1n[nH]c(NS(=O)(=O)c2ccc(C)s2)n1`, the “% Inhibition” value amounted to 0% and the Z score is 0.03.
On the same counts, the results for `COCc1cc(=O)n2c(n1)N(CCc1ccccc1)CC2` are -8% and 1.56.
Turning to `COC1CCCC1NCCn1cc(Br)cn1` (stereo not drawn), the “% Inhibition” value is -6% and the Z score is listed as 0.69.
Regarding `Cc1cc(NC(=O)c2ccc3c(c2)OCO3)nc(=O)[nH]1`, the “% Inhibition” value is 3% and the Z score was -0.4.
As to `CC1CC1C(=O)N(C)CC1COc2ccccc2O1` (stereo not drawn), the “% Inhibition” value is listed as -13% and the Z score is reported as 2.44.
Turning to `Cc1cccc(C)c1-n1c(=O)n(C[C@H]2CCCO2)c(=O)c2c1ncn2CC(=O)c1ccc(Cl)cc1`, the “% Inhibition” value was -4% and the Z score stood at 0.54.
Taken in the same sequence, the figures for `COCCC(NC(=O)C1C2CCCC21)c1ccc(C)o1` (stereo not drawn) were 17% and -1.94.
As for `C[C@H]1Cc2c(NC(=O)CC3CCCC3)nn(C)c2NC1=O`, the “% Inhibition” value came to 11% and the Z score is -1.47.
As for `COc1ccc(-c2ccc(C(=O)NCc3nc4ccccc4[nH]3)c(=O)[nH]2)cc1`, the “% Inhibition” value is -6% and the Z score is reported as 0.7.
As for `CC(C)C(=O)N1C[C@H](O)C[C@H]1c1nnc2n1CCN(C(=O)C1CCCCC1)C2`, the “% Inhibition” value is -9% and the Z score was 1.02.
In the case of `COc1c(F)cccc1CN1C[C@H]2CCC[C@@H](C1)N(C)C2`, the “% Inhibition” value came to 4% and the Z score is on record as -0.56.
Taken in the same sequence, the figures for `Cc1cc(CN(C)C[C@@]2(C)CCCN(C(=O)OC(C)(C)C)C2)no1` were 4% and -0.58.
As to `Cc1cc2c(cnc3ncnn32)c(=O)n1-c1ccc2c(c1)OCCO2`, the “% Inhibition” value was -5% and the Z score is recorded as 0.68.
As to `Nc1[nH]nc(-c2ncnn2C2CCCCC2)c1Cl`, the “% Inhibition” value stood at 1% and the Z score is reported as -0.12.
Turning to `COc1ccc(-c2csc(N3CCN(C/C=C/c4ccccc4)CC3)n2)cc1`, the “% Inhibition” value was -12% and the Z score was found to be 2.29.
Regarding `COc1ccc(-c2cc(C(=O)Nc3ncc(Cc4cccc(C)c4)s3)c3ccccc3n2)cc1OC`, the “% Inhibition” value is recorded as -1% and the Z score amounted to 0.21.
On to `CCc1nccn1CCC(=O)N1CC[C@@](O)(C2CCOCC2)[C@H](C)C1`, for which the “% Inhibition” value is on record as -5% and the Z score stood at 0.94.
On the same counts, the results for `CN(C)C(=O)c1cccc(Cn2ccnc2-c2ccccc2-c2ccco2)c1` are -11% and 1.45.
Regarding `CCC[C@H](C)N1CC2(CCN(C(=O)c3cc(C)nc(C)n3)CC2)OC1=O`, the “% Inhibition” value came to 10% and the Z score is listed as -1.79.
As for `Cc1ccc(C)c(-c2nn(CN(C)Cc3ccccc3)c(=O)c3ccccc23)c1`, the “% Inhibition” value was 7% and the Z score is -0.96.
Regarding `CC1C(OC(=O)c2ccc(-n3cccn3)nc2)CC2CC1C2(C)C` (stereo not drawn), the “% Inhibition” value is given as -6% and the Z score was 0.84.
As for `O=C(CCCn1cnnn1)N1CCC[C@H]1c1nc2ccccc2[nH]1`, the “% Inhibition” value is listed as -7% and the Z score is given as 0.86.
For `Cc1nc(-c2ccc(-c3noc(-c4ccnn4C)n3)cc2)cs1`, the “% Inhibition” value is recorded as -21% and the Z score is given as 2.09.
Take `C=CCN1CCC[C@H]1C(=O)NCCc1cc[nH]n1`: the “% Inhibition” value turned out to be 1% and the Z score is listed as -0.1.
Take `CCCN1CCCN(Cc2cc3ccccc3[nH]c2=O)CC1`: the “% Inhibition” value amounted to 0% and the Z score stood at 0.
With `CCn1c(=O)c(N2CCC(C(=O)N[C@H]3CCS(=O)(=O)C3)CC2)nc2ccccc21`, the “% Inhibition” value is -6% and the Z score came to 1.14.
`CC(NC(C)c1nccn1C)c1cscn1` (stereo not drawn): the “% Inhibition” value is listed as -2% and the Z score was 0.44.
Take `CCCCc1cc(N2C[C@H](C(=O)O)[C@@H](C3CC3)C2)ncn1`: the “% Inhibition” value is reported as -6% and the Z score came to 0.65.
With `Cc1nn(C(C)(C)C)c2nc(C3CC3)cc(C(=O)N3CCN(c4ccccc4)CC3)c12`, the “% Inhibition” value amounted to 7% and the Z score is -1.07.
Take `CC1(C)NC(=O)N(CCCN2CCc3ccccc3[C@@H]2C(N)=O)C1=O`: the “% Inhibition” value was -14% and the Z score is reported as 1.25.
Take `CCN(CC)C(=O)Cn1ccnc1-c1cncc(Br)c1`: the “% Inhibition” value stood at 25% and the Z score is -2.79.
Regarding `COCCN(Cc1cncs1)C(=O)[C@@H]1CCCO1`, the “% Inhibition” value is -4% and the Z score is listed as 0.65.
For the compound `N#Cc1ccc(N2CCC[C@H]2CCc2ccccn2)nc1`, the “% Inhibition” value is on record as -17% and the Z score turned out to be 2.69.
For the compound `CC(C)N1CCCC[C@H]1C(=O)Nc1ccn(CCCC#N)n1`, the “% Inhibition” value was -11% and the Z score stood at 1.51.
